{
  "source": "paper doi:10.1101/598201",
  "about": "(bioRxiv, 2019)",
  "target": "the molecule itself",
  "assay": "SEC",
  "data": [
    {"protein": "G3BP1-1-168 wild-type (domain or fragment) not shown", "values": [
      {"measurement": "stoichiometry N", "result": 2}
    ]}
  ]
}
